We go through 21 proteins from the supplement of paper PMC11876631.

Positions count from the first letter of the chain named. Numbers in names are those of the source. ± gives the standard deviation of the averaged measurements. Laboratory Escherichia coli strains with one amino-acid change in an essential protein, pooled on minimal glucose agar with carbenicillin or gentamicin at twice the control MIC (plus kanamycin and chloramphenicol for the plasmids), 48 h. Fold change of barcode share against drug-free plates; higher = less susceptible. Active = above 20 in both replicates (the paper's putatively resistant). '<' = one read or none on drug, '>' = one read or none on a drug-free plate. Shares are relative, so most strains fall below 1 when a few take over. Listed are strains with at least 15 reads on both drug-free plates, and hits; most hits rest on fewer reference reads. Replicate rank correlation about 0.5. Edits are read from barcodes.

To fix the notation:
B1: guaB M359A (protein)
chain: MLRIAKEALTFDDVLLVPAHSTVLPNTADLSTQLTKTIRLNIPMLSAAMDTVTEARLAIALAQEGGIGFIHKNMSIERQAEEVRRVKKHESGVVTDPQTVLPTTTLREVKELTERNGFAGYPVVTEENELVGIITGRDVRFVTDLNQPVSVYMTPKERLVTVREGEAREVVLAKMHEKRVEKALVVDDEFHLIGMITVKDFQKAERKPNACKDEQGRLRVGAAVGAGAGNEERVDALVAAGVDVLLIDSSHGHSEGVLQRIRETRAKYPDLQIIGGNVATAAGARALAEAGCSAVKVGIGPGSICTTRIVTGVGVPQITAVADAVEALEGTGIPVIADGGIRFSGDIAKAIAAGASAVAVGSMLAGTEESPGEIELYQGRSYKSYRGMGSLGAMSKGSSDRYFQSDNAADKLVPEGIEGRVAYKGRLKEIIHQQMGGLRSCMGLTGCGTIDELRTKAEFVRISGAGIQESHVHDVTITKESPNYRLGS
B2: guaB M359Q (protein)
chain: B1 chain with A359Q
B3: argG L114A (protein)
chain: MTTILKHLPVGQRIGIAFSGGLDTSAALLWMRQKGAVPYAYTANLGQPDEEDYDAIPRRAMEYGAENARLIDCRKQLVAEGIAAIQCGAFHNTTGGLTYFNTTPLGRAVTGTMAVAAMKEDGVNIWGDGSTYKGNDIERFYRYGLLTNAELQIYKPWLDTDFIDELGGRHEMSEFMIACGFDYKMSVEKAYSTDSNMLGATHEAKDLEYLNSSVKIVNPIMGVKFWDESVKIPAEEVTVRFEQGHPVALNGKTFSDDVEMMLEANRIGGRHGLGMSDQIENRIIEAKSRGIYEAPGMALLHIAYERLLTGIHNEDTIEQYHAHGRQLGRLLYQGRWFDSQALMLRDSLQRWVASQITGEVTLELRRGNDYSILNTVSENLTYKPERLTMEKGDSVFSPDDRIGQLTMRNLDITDTREKLFGYAKTGLLSSSAASGVPQVENLENKGQ
B4: argG L114W (protein)
chain: B3 chain with A114W
B5: gmk L24Q (protein)
chain: MAQGTLYIVSAPSGAGKSSLIQAQLKTQPLYDTQVSVSHTTRQPRPGEVHGEHYFFVNHDEFKEMISRDAFLEHAEVFGNYYGTSREAIEQVLATGVDVFLDIDWQGAQQIRQKMPHARSIFILPPSKIELDRRLRGRGQDSEEVIAKRMAQAVAEMSHYAEYDYLIVNDDFDTALTDLKTIIRAERLRMSRQKQRHDALISKLLAD
B6: gmk L179W (protein)
chain: B5 chain with Q24L, L179W
B7: gmk L179A (protein)
chain: B5 chain with Q24L, L179A
B8: groS L92A (protein)
chain: MNIRPLHDRVIVKRKEVETKSAGGIVLTGSAAAKSTRGEVLAVGNGRILENGEVKPLDVKVGDIVIFNDGYGVKSEKIDNEEVLIMSESDIAAIVEA
B9: groS L92D (protein)
chain: B8 chain with A92D
B10: groS L41D (protein)
chain: B8 chain with L41D, A92L
B11: groS L27A (protein)
chain: B8 chain with L27A, A92L
B12: groS V26A (protein)
chain: B8 chain with V26A, A92L
B13: groS L41A (protein)
chain: B8 chain with L41A, A92L
B14: groS V26Q (protein)
chain: B8 chain with V26Q, A92L
B15: groS V26W (protein)
chain: B8 chain with V26W, A92L
B16: groS L27P (protein)
chain: B8 chain with L27P, A92L
B17: groS L27W (protein)
chain: B8 chain with L27W, A92L
B18: groS L27Q (protein)
chain: B8 chain with L27Q, A92L
B19: groS V26P (protein)
chain: B8 chain with V26P, A92L
B20: groS L27D (protein)
chain: B8 chain with L27D, A92L
B21: groS V26D (protein)
chain: B8 chain with V26D, A92L

For the first series, the target named is Escherichia coli (laboratory strain). Kind of series: barcode share on antibiotic plates over drug-free plates; higher = less susceptible. Particulars: antibiotic: carbenicillin; 2× MIC (3.1 µg/mL). The method, then: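 A pool of E. coli strains, each edited to carry one amino-acid change in an essential protein, was grown for 48 h on minimal glucose agar with or without antibiotic; strain barcodes were sequenced; mean of two replicates.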
As to B1, the “fold change of barcode share” value was 0.313 ± 0.046. The same measure, in the same setting: the value for B2 was 0.379 ± 0.02; that for B3 was 0.212 ± 0.022; that for B4 was 0.709 ± 0.067.

On to B5, for which the “fold change of barcode share” value was determined as 0.366 ± 0.039. Turning to B6, the “fold change of barcode share” value amounted to 0.23 ± 0.018. On the same count and under the same terms, the value for B7 was 0.417 ± 0.3; that for B8 was 0.29 ± 0.1. On the same count and under the same terms, the value for B9 was 0.231 ± 0.12; that for B10 was 0.43 ± 0.13; that for B11 was 0.403 ± 0.13. Still for that read-out and setting: the value for B12 was 0.264 ± 0.0078. As for B13, the “fold change of barcode share” value is 0.381 ± 0.055. On to B14, for which the “fold change of barcode share” value came out at 0.46 ± 0.31. B15: the “fold change of barcode share” value is 0.391 ± 0.17.

For the protein B16, the “fold change of barcode share” value was 0.396 ± 0.053.

As for B17, the “fold change of barcode share” value is 0.219 ± 0.082. Same read-out and setting: under B18 stands 0.334 ± 0.12; under B19, 0.0622 ± 0.039. Consider B20, for which the “fold change of barcode share” value is 0.313 ± 0.16. On the same count and under the same terms, the value for B21 was 0.244 ± 0.047.

The series is the same for the next values; noted with them: antibiotic: gentamicin; 2× MIC (MIC 0.45 µg/mL).
For the protein B1, the “fold change of barcode share” value is < 0.00486. The same measure, in the same setting: under B2 stands 0.00841 ± 0.0031.

On to B3, for which the “fold change of barcode share” value came to 0.00401 ± 0.0037. On the same count and under the same terms, the value for B4 was 0.289 ± 0.34; that for B6 was < 0.00687; that for B7 was < 0.0123. Regarding B8, the “fold change of barcode share” value was < 0.00589. Same read-out and setting: under B9 stands 0.00916 ± 0.0052. On the same count and under the same terms, under B10 stands 0.0964 ± 0.02; under B11, < 0.0067. Same read-out and setting: under B12 stands 0.0167 ± 0.018; under B13, 0.00861 ± 0.00092.

On to B14, for which the “fold change of barcode share” value was found to be 0.00749 ± 0.0031.

For B15, the “fold change of barcode share” value was found to be 0.00946 ± 0.0047. With B16, the “fold change of barcode share” value was < 0.00427.

For the protein B17, the “fold change of barcode share” value turned out to be 0.00689 ± 0.0065. The same measure, in the same setting: the value for B18 was < 0.00303; that for B20 was < 0.0122; that for B21 was 0.0425 ± 0.054.
